Experimental data reported in PubChem BioAssay AID2147 (National Center for Advancing Translational Sciences (NCATS), 2009).
Values joined by “and” are separate entries in the source; they are usually repeats but may differ in a detail not shown here. Equal entries are not always repeated. Out of some 230,000 compounds screened, about 3,600 (1.6%) were called active. Inconclusive results, whose numbers are uncertain, are shown with a selection of clear calls. The call rests on the fitted dose curve; in most records, active means well fitted inhibition curve with a large enough effect (not every such curve was filed as active); inconclusive means small, poorly fitted or top-dose-only effect, or another doubt; inactive means no such curve, though single readings can be large or run the other way. Potencies beside an inconclusive call are fits to weak or partial responses and may not hold up.

target: Lysine-specific demethylase 4E (Homo sapiens) (UniProt B2RXH2); assay: qHTS Assay for Inhibitors of Human Jumonji Domain Containing 2E (JMJD2E); details: JMJD2E catalytic domain, FDH-coupled NADH fluorescence (FDH is formaldehyde dehydrogenase); series mostly up to 57.1 µM
UniProt B2RXH2, sequence (B2RXH2 whole entry, looked up, the tested form may be a part): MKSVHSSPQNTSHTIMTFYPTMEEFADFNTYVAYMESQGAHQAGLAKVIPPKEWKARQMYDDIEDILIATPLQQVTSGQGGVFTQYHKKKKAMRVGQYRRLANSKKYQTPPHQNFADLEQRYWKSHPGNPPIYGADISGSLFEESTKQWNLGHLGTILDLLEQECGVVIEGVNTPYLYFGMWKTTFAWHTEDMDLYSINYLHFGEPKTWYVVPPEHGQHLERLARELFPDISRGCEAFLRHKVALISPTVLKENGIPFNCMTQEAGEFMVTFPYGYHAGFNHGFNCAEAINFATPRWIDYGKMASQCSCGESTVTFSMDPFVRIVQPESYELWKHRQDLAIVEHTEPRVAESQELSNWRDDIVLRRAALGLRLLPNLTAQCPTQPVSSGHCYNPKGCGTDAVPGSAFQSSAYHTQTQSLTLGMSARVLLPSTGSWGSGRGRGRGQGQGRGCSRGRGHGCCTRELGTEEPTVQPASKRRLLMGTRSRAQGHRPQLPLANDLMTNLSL
Further: nearly all actives have a fitted effect of over 50% in size.
Potency means the concentration at half of the fitted maximal effect; tags describe the fitted curve by direction and shape.

Structure (SMILES) | Potency
Cc1nc2cc(N3CCCCC3)c(NC(=O)c3cccnc3)cc2c(=O)n1Cc1ccccc1 | inconclusive: 35.5 µM [inhibitor, single point]
CCN(CC)c1ccc(/C=N/NC(=S)NC)c(O)c1 | inconclusive: 28.2 µM [inhibitor, partial curve]
COc1ccc(NC(=S)NC(=O)/C=C/c2ccco2)cc1 | inconclusive: 31.6 µM [inhibitor, single point]
O=C(CCn1c(=O)c2ccccc2n(Cc2cc(=O)n3ccccc3n2)c1=O)NCc1ccco1 | inconclusive: 31.6 µM [inhibitor, single point]
COCCn1nnnc1C(c1cc2ccc(OC)cc2[nH]c1=O)N1CCc2ccccc2C1 (stereo not given) | inconclusive: 28.2 µM [inhibitor, partial curve]
O=C(COc1ccccc1-c1ccccc1)N/N=C/c1ccncc1 | inactive
O=C(O)c1cc2ccccc2c2cc(Br)ccc12 | inactive
COc1ccc(C(=O)/C(=C\c2ccco2)N2C=CC=CC2=C(C#N)C#N)cc1 | inconclusive: 39.8 µM [inhibitor, single point]
O=C(NC1CCCCC1)N(Cc1ccccc1)Cc1ccco1 | inactive
COc1ccccc1NC(=O)c1sc2nc(-c3ccco3)ccc2c1N | inconclusive: 12.6 µM [inhibitor, partial curve]
CCCCn1c(SCC(=O)Nc2cccc(OC)c2)nc2ccc(N3CCOCC3)cc2c1=O | inconclusive: 25.1 µM [inhibitor, partial curve]
CCCc1c(C)nc2c(OC)cccc2c1SCC(=O)O | inconclusive: 31.6 µM [inhibitor, partial curve]
CCCn1c(=O)[nH]c(=O)c2c(C(F)(F)F)cc(-c3ccc(C)cc3)nc21 | inconclusive: 10 µM [inhibitor, partial curve]
COc1cc2[nH]c(=O)n(CCCCCC(=O)NCCCN3CCCC3=O)c(=O)c2cc1OC | inconclusive: 31.6 µM [inhibitor, partial curve]
Cc1ccc(C)c(NS(=O)(=O)c2cc(C(=O)Nc3ccccc3-c3ccccc3)ccc2C)c1 | inconclusive: 35.5 µM [inhibitor, single point]
CCOC(=O)C1=NN(C(=O)c2ccco2)C2(CC2)C1 | inactive
O=C(CCCc1nc2ccccc2s1)NCc1ccccc1F | inactive
Cc1[nH]n(-c2ccccc2)c(=O)c1Sc1ccc(Cl)cc1 | inactive
CCOc1ccc2nc(NCCNC(=O)C(C)(C)C)c(C)cc2c1 | inconclusive: 28.2 µM [inhibitor, partial curve]
CN(C)c1ccc(C(=S)N2CCN(Cc3ccccc3)CC2)cc1 | inactive
CC(=O)c1ccc2c(c1)C1C=CCC1C(c1ccc(S(=O)(=O)N3CCOCC3)cc1)N2 (stereo not given) | inactive
CC1(C)Cc2c(sc3nc(SCC(=O)O)[nH]c(=O)c23)CO1 | inconclusive: 28.2 µM [inhibitor, single point]
CCN(CC)Cc1c(O)ccc2c(=O)c(-c3ccc4c(c3)OCCO4)coc12 | inconclusive: 31.6 µM [inhibitor, partial curve]
O=C(Nc1cccc2nsnc12)c1ccc2c(c1)OCCO2 | inconclusive: 39.8 µM [inhibitor, single point]
CCOC(=O)c1c(NC(=O)c2ccc(S(=O)(=O)N3CCOCC3)cc2)sc2c1CCN(C)C2 | inactive

Structure (SMILES) | Potency
COc1cc([C@@H]2Oc3cc([C@H]4Oc5cc(O)cc(O)c5C(=O)[C@H]4O)ccc3O[C@H]2CO)ccc1O | active: 28.2 µM
c1csc(-c2ncc3ccccn23)c1 | inconclusive: 28.2 µM [inhibitor, partial curve]
CC(C)(C)SCCNC(=O)/C=C/c1ccc([N+](=O)[O-])cc1 | inactive
O=S(=O)(c1cccc2nsnc12)N1CCN(c2ccc(F)cc2)CC1 | inactive
Cc1csc(=Nc2ccccc2)n1CCCN1CCCC1=O | inactive
CC(C)[C@H](NC(=O)c1ccco1)C(=O)OCC(=O)Nc1cccc(F)c1 | inactive
c1ccc(-c2nnsc2-c2nc3ccccc3[nH]2)cc1 | inconclusive: 28.2 µM [inhibitor, partial curve]
Cc1ccn2c(Nc3ccccc3C)c(-c3ccncc3)nc2c1 | inconclusive: 28.2 µM [inhibitor, single point]
Cn1c(N)c(C(=O)COC(=O)c2cc(C3CC3)nc3ccccc23)c(=O)n(Cc2ccccc2)c1=O | inconclusive: 39.8 µM [inhibitor, single point] and inconclusive: 35.5 µM [inhibitor, single point]
CN1CCN(c2c(F)cc3c(=O)c(C(=O)O)cn4c3c2OCN4C)CC1 | inconclusive: 28.2 µM [inhibitor, partial curve]
O=C1c2nc3cc(-c4ccco4)[nH]n3c(=O)c2CN1Cc1ccccc1 | inconclusive: 31.6 µM [inhibitor, partial curve]
O=C(Nc1ccccn1)Nc1cccs1 | inactive
COC(=O)C1=C(C)NC(=O)NC1c1ccc(N2CCC(c3ccccc3)=N2)cc1 (stereo not given) | inconclusive: 31.6 µM [inhibitor, partial curve]
N#Cc1ccc(/C=N/NC(=S)Nc2ccc(S(=O)(=O)N3CCOCC3)cc2)cc1 | inactive
N=c1sccn1CC(=O)Nc1cc(Cl)ccc1Oc1ccccc1 | inconclusive: 39.8 µM [inhibitor, single point]
CCn1c2ccccc2c2nn(C)c(=N)nc21 | inactive
Cc1ccccc1-n1nc2c(c1NC(=O)/C=C\c1ccc3c(c1)OCO3)CSC2 | inconclusive: 35.5 µM [inhibitor, single point]
COC(=O)C1=C(C)N(C)C(=O)NC1c1cc(Cl)cc(Cl)c1OC (stereo not given) | inconclusive: 39.8 µM [inhibitor, single point]
OC(CCCN1CCCCC1)(c1ccccc1)c1ccccc1 | inconclusive: 20 µM [inhibitor, single point]
CCCC(=O)c1ccc(N2CCN(C(=O)c3ccccc3Br)CC2)c(F)c1 | inactive
COc1ccccc1N1C(=S)NC2CS(=O)(=O)CC21 (stereo not given) | inactive
CC(=O)Nc1ccc(C2=NN(c3ccccc3)C(c3cccs3)C2)cc1 (stereo not given) | inconclusive: 35.5 µM [inhibitor, partial curve]
S=c1[nH]nc(-c2cccnc2)n1/N=C/C=C/c1ccccc1 | inconclusive: 28.2 µM [inhibitor, single point]
Cc1ccc(C(=O)Nc2cc3ccccc3oc2=O)cc1 | inconclusive: 10 µM [inhibitor, partial curve]
CCCn1c(=N)c(C#N)cc2c(=O)n3ccccc3nc21 | inconclusive: 1.26 µM [inhibitor, full curve]

Structure (SMILES) | Potency
c1ccc(-c2nc3c(ccc4ccccc43)[nH]2)nc1 | inconclusive: 25.1 µM [inhibitor, partial curve]
COc1ccc2c(OC)cc(-c3ccccc3)nc2c1 | inconclusive: 28.2 µM [inhibitor, single point]
O=C(CCl)N(Cc1ccccc1)c1ccccc1 | inactive
CC(C)N(CC#CC(O)(c1ccccc1)c1ccccc1)CCO | inactive
Cc1ccc(N2C(=O)CC(N(CCc3ccccc3)C(=S)Nc3ccc(N(C)C)cc3)C2=O)cc1 (stereo not given) | inactive
CN(C(=S)SCc1ccccc1)C1CCS(=O)(=O)C1 (stereo not given) | inactive
Cc1occc1C(=O)NC(C)c1ccc2c(c1)OCO2 (stereo not given) | inactive
CCOc1cccc(C(=O)Nc2nc(-c3ccc(S(=O)(=O)N4CCOCC4)cc3)cs2)c1 | inconclusive: 35.5 µM [inhibitor, partial curve]
COc1ccc(CC(=O)Nc2ccc(-c3nnc(-c4ccccc4)o3)cc2)cc1OC | inconclusive: 10 µM [inhibitor, partial curve]
O=C(Nc1cc(S(=O)(=O)N2CCOCC2)ccc1N1CCCCC1)c1cc(-c2ccccn2)nc2ccccc12 | inconclusive: 39.8 µM [inhibitor, single point]
O=C(COC(=O)c1cnccn1)c1ccc(Cl)cc1 | inactive
CCc1[nH]c(C(=O)O)c(C)c1C(=O)OC | inactive
COc1ccc(-c2cc(C(=O)O)no2)cc1 | inactive
Cc1csc2sc(-c3ccnc(SCC(=O)NCc4ccccc4)n3)c(C)c12 | inconclusive: 35.5 µM [inhibitor, single point]
CCc1ccc2[nH]c(=O)c(CN(Cc3ccccc3OC)Cc3nnnn3Cc3ccco3)cc2c1 | inconclusive: 39.8 µM [inhibitor, single point]
CC1(C)CC(NC(=O)c2sc3cc(Cl)ccc3c2Cl)CC(C)(C)N1 | inactive
Nc1nc2ccc(S(=O)(=O)c3ccc4nc(N)sc4c3)cc2s1 | inconclusive: 39.8 µM [inhibitor, single point]
COc1ccc(-c2cn3cc(Cl)ccc3n2)cc1OC | inconclusive: 28.2 µM [inhibitor, partial curve]
Cc1nn2c(C)nc3sc4c(c3c2nc1=O)CC(C)(C)OC4 | inconclusive: 31.6 µM [inhibitor, single point]
CCCCC/C=C\C/C=C\C/C=C\CCCCC(N)=O | inactive
Cc1nc(CSc2nsc(C)c2C#N)cs1 | inactive
Cc1nc(NCc2ccccc2)c2nc(-c3ccccc3)n(CCCN3CCOCC3)c2n1 | inconclusive: 31.6 µM [inhibitor, partial curve]
N#C/C(=N\Nc1ccc(S(=O)(=O)N2CCCCC2)cc1)C(N)=S | inactive
CCN(CC)c1ccc(C=N/C(C#N)=C(\N)C#N)cc1 | inactive
COc1ccc(-n2c(NC(=O)c3ccco3)c(C#N)c3nc4ccccc4nc32)cc1 | inactive
